Laboratory results published in the supplement of paper PMC3334620.
The full ranking holds about 33,000 sequences; the median of “E-score (-0.5 to 0.5)” is about -0.012, and the highest 2% start at about 0.27. The list shows a part of the results.

target: T1, Vhr1 (UniProt P40522); test: PBM E-score (8-mer binding enrichment) (E-score (-0.5 to 0.5)); higher = stronger / more preferred TF binding; most listed sequences are background and not binding sites; conditions: protein concentration: 200 nM; construct: GST-full length
T1 sequence: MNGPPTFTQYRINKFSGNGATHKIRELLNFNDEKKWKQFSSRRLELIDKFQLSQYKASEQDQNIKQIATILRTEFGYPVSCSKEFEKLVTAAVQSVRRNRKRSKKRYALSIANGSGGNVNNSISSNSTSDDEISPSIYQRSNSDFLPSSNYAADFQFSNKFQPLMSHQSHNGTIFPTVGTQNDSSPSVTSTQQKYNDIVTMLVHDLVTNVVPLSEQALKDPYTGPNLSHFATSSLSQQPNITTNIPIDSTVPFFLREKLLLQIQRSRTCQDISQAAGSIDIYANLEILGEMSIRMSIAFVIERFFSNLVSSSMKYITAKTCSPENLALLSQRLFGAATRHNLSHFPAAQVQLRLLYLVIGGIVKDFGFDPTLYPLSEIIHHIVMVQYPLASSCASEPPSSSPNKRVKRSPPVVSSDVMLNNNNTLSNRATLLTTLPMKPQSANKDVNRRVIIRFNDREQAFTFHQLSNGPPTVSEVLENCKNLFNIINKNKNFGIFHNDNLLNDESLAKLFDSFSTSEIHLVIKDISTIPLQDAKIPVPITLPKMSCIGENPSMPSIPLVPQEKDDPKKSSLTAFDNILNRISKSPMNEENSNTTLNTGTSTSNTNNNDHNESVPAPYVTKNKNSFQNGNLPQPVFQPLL
How it was run: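 Detection of bound protein used fluorescent anti-GST, with scans normalised by masliner. The proteins were GST-tagged yeast transcription factors applied at about 100-200 nM to universal all-10-mer Agilent arrays made double-stranded by primer extension. Each ungapped eight-base word, pooled with its reverse complement, was scored with an E-score from the Universal PBM Analysis Suite.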

| Sequence | PBM E-score |
| --- | --- |
| GTTCGGGA | 0.0974 |
| CAGCCTCG | 0.142 |
| GAGCAAGA | 0.0215 |
| ATTCCGTG | 0.0974 |
| ACTATCTA | 0.184 |
| CAGAAGAG | -0.189 |
| CCGTCGCG | 0.167 |
| AAATTTGT | -0.19 |
| AGGAAGAT | -0.0453 |
| GAGAAGAC | -0.158 |
| AGACTAAA | 0.0442 |
| CACGCCAG | 0.05 |
| ATCCGAGC | -0.0102 |
| CCACGAAG | 0.0613 |
| CTTTACCA | -0.0566 |
| CCGTGCCG | -0.00022 |
| CGTACAAA | 0.0349 |
| CCTGCCCG | 0.181 |
| AGAATGTG | -0.014 |
| GTGAGATA | 0.141 |
| ATTATAAC | 0.0333 |
| CTGGGCCA | -0.176 |
| CCTGGATC | -0.0366 |
| CTGCGCAG | -0.111 |
| ATCTTCTC | -0.216 |

| Sequence | PBM E-score |
| --- | --- |
| CTCACGCA | 0.29 |
| CCATGCCC | 0.0169 |
| ACCCGCAA | -0.102 |
| ACTTGTTA | 0.0328 |
| CGAACCTA | -0.104 |
| GCTGGCAA | 0.115 |
| ATTAGTGC | 0.195 |
| TCAGGCGA | 0.114 |
| CACAGCGG | 0.00366 |
| AATAGGGA | -0.0744 |
| GAACAATA | 0.234 |
| ATGCCAAC | -0.0202 |
| CAACGATA | -0.0603 |
| AAATCTAG | -0.109 |
| GCGACTGA | 0.132 |
| GTGTTAGA | -0.0244 |
| AGGAGTCG | 0.339 |
| CAGCACAG | 0.197 |
| AGATCCGC | 0.086 |
| TGGTAGAA | -0.104 |
| TAAAAGAA | -0.342 |
| CCCTACCG | 0.122 |
| CATACTGC | 0.0888 |
| CAGGCGGG | 0.122 |
| CAAGAATA | 0.037 |

| Sequence | PBM E-score |
| --- | --- |
| ATCTACGC | 0.147 |
| CTTCGAAA | -0.164 |
| AAGTGAGG | -0.0839 |
| ACAGTCAT | 0.318 |
| AACAGTCA | 0.192 |
| ACCGCTCC | -0.0967 |
| CGGTAACC | 0.104 |
| AGTGGCAC | -0.1 |
| GTTCAAAC | -0.0829 |
| ATGAAGAG | -0.0404 |
| AAACAGGC | -0.132 |
| GGAGAGAA | 0.00992 |
| AAGAACAA | 0.0412 |
| ATGGTACC | -0.0842 |
| GAACCTGC | -0.0491 |
| AAGCCGTC | 0.0457 |
| ACTGTCAT | 0.173 |
| AGATTTAC | -0.0587 |
| ATGGAAGG | -0.187 |
| GATCCGTA | 0.0828 |
| CCTTGAGC | -0.213 |
| CTTCGATC | -0.0957 |
| TGCACACA | 0.123 |
| CACAACGG | -0.111 |
| CATGGCCG | 0.0355 |

| Sequence | PBM E-score |
| --- | --- |
| CGGCGAAA | 0.0392 |
| AATCTTAA | -0.258 |
| CGGGCTGA | 0.104 |
| AGACTTAA | -0.336 |
| AGAAATAA | -0.13 |
| AATGGTGA | 0.157 |
| GCCATAGA | -0.0613 |
| GTGGGCTA | 0.0247 |
| AGAAGTCG | -0.0261 |
| CATGTCTA | 0.0965 |
| ACATGCAT | 0.12 |
| CCCACCGG | 0.1 |
| GTGGATGA | 0.263 |
| ATCCGGAG | 0.0204 |
| CGCCTGTA | -0.197 |
| AATAAATG | 0.0572 |
| AAACAATG | 0.044 |
| CAGCCTGA | 0.0687 |
| CCCATAAA | -0.0702 |
| ACTTTTAC | -0.038 |
| GTCAGAGA | 0.00426 |
| TTATGGAA | -0.114 |
| ATGCAAAC | -0.0414 |
| ATTGACGA | 0.0386 |
| TACGCTGA | 0.0554 |

| Sequence | PBM E-score |
| --- | --- |
| AGCACGGC | -0.0184 |
| ACAGGAGT | 0.0766 |
| GAGTCCCC | 0.201 |
| ATCCAATC | 0.0693 |
| ACTTAGAA | -0.237 |
| AGCCCCGA | -0.108 |
| ATCATAAG | 0.00259 |
| TAGGCCAA | -0.18 |
| GAGCAGGC | 0.0109 |
| AAAGTATT | 0.0561 |
| CGGTGTAA | 0.00145 |
| CACGCGCC | 0.122 |
| GGTATAGA | -0.205 |
| GTGGGTAA | 0.138 |
| ACTGAAGT | -0.0457 |
| GACAGGCA | -0.0241 |
| ATTCGATC | 0.0807 |
| GATGCTTA | -0.217 |
| AGTCAACC | 0.373 |
| GGCTGCAC | -0.0516 |
| GGCATTAA | -0.214 |
| AAGTATCT | -0.184 |
| GCGCAGAA | 0.0192 |
| CGTAGGAG | -0.143 |
| ACTGGTCC | -0.00045 |

| Sequence | PBM E-score |
| --- | --- |
| CACGTCAG | 0.0341 |
| ATAACTAA | 0.0665 |
| ATGTTTAC | 0.152 |
| AAACCTTG | 0.068 |
| TCCATCAA | 0.198 |
| GGAGGTGA | 0.165 |
| GAACAGAC | 0.161 |
| GTTGGGAA | -0.111 |
| GGGATATA | 0.189 |
| AGCCGGGC | -0.114 |
| CGCTCAAC | -0.0713 |
| ACATTCGA | 0.0492 |
| ATAATAAT | -0.0529 |
| AGCAGGAT | 0.111 |
| ACCCCCGC | -0.0906 |
| TACAGTGA | 0.0892 |
| AGCAAGGC | 0.0254 |
| CCAATCGC | 0.0862 |
| ACCCTTGG | -0.128 |
| TCCAGCCA | -0.153 |
| TGCAGGCA | -0.141 |
| AGATGCTA | 0.0826 |
| ACACGTGG | 0.1 |
| AAATGCAT | 0.0418 |
| ATGACAGG | 0.0147 |

| Sequence | PBM E-score |
| --- | --- |
| CTGTCGGA | 0.0147 |
| GGCATAAC | -0.164 |
| AACATGGG | 0.269 |
| ACAAGTCA | 0.174 |
| CGAAACAC | 0.0131 |
| GACTTCCC | -0.0666 |
| GCTCGACA | -0.151 |
| CAGGCCTC | -0.225 |
| CACGATTC | 0.158 |
| AACAAGGC | 0.127 |
| CGCATAAC | -0.102 |
| ATTACGTC | -0.0362 |
| AACTTGCT | -0.062 |
| TATTCCGA | -0.00686 |
| ACCTGGAG | 0.0423 |
| TACTGCAA | -0.0559 |
| ATCACGGC | 0.0841 |
| GTTCCTGA | -0.0981 |
| AGTGACGC | -0.138 |
| AATATGAT | 0.264 |
| CGCTTTTA | -0.178 |
| ACGATCGA | -0.0296 |
